{
  "source": "paper PMC4336329",
  "about": "(PLoS ONE, 2015)",
  "note": "Among all 310,000 compounds or so, about 2,200 (0.71%) showed an effect of 50% or more. The effect is printed as a negative number. The list shows a part of the results.",
  "data": [
    {"molecular_target": "human ether-à-go-go-related gene (hERG) potassium channel (human, UniProt Q12809)", "sequence (Q12809 whole entry, looked up)": "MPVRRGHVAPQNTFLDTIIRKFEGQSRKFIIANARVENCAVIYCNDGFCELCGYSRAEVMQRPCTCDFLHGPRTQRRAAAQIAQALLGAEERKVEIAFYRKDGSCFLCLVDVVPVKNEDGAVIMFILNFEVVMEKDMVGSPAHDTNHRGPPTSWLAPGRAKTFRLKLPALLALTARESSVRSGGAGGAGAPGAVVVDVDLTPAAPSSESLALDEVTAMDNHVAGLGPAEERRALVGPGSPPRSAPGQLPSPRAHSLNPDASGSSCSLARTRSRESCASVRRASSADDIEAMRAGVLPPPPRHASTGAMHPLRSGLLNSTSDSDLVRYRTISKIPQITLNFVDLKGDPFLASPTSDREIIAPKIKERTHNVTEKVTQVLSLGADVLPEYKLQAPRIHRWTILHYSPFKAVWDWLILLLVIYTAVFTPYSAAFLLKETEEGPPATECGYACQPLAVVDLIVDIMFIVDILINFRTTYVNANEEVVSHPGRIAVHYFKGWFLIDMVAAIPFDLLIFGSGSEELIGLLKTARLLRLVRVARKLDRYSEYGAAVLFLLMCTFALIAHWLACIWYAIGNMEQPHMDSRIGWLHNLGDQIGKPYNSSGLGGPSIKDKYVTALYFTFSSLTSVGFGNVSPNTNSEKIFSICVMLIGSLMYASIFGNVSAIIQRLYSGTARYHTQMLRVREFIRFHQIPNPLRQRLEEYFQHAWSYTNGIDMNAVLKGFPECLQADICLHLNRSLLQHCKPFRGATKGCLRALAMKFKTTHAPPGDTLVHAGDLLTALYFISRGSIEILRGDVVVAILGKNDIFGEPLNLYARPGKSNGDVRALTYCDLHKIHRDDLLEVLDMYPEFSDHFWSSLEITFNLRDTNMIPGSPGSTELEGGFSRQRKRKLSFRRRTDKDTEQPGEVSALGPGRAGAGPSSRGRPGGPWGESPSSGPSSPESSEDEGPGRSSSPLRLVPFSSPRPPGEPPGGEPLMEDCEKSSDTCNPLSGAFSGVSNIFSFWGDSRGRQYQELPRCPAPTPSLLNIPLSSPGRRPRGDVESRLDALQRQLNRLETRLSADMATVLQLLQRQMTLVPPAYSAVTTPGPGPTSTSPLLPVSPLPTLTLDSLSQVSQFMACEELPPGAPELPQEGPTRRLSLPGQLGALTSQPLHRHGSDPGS", "experiment": "primary screen, population patch clamp on CHO cells stably expressing hERG", "units": {"hERG current change (%, negative = inhibition) at 1uM": "%"}, "values": [
      {"smiles": "Cc1cc2cc(CCNC(=O)C(C)C)c(=O)[nH]c2cc1C", "hERG current change (%, negative = inhibition) at 1uM": 8.91},
      {"smiles": "CC(NC(=O)C(=O)NCCc1c[nH]c2ccccc12)c1ccccc1", "note": "(stereo not shown)", "hERG current change (%, negative = inhibition) at 1uM": 12.1},
      {"smiles": "Cc1ccc(C(=O)COC(=O)c2n[nH]c(=O)c3ccccc23)cc1", "hERG current change (%, negative = inhibition) at 1uM": 9.61},
      {"smiles": "Cc1cc(C)nc(NC(=S)Nc2ccc(F)cc2F)c1", "hERG current change (%, negative = inhibition) at 1uM": 10.3},
      {"smiles": "C=CCn1c(CCC(=O)O)ccc1-c1ccc(OC)cc1", "hERG current change (%, negative = inhibition) at 1uM": 18.3},
      {"smiles": "Cc1cccc(OC(=O)Cn2c(C(F)(F)F)nc3ccccc32)c1", "hERG current change (%, negative = inhibition) at 1uM": 12.1},
      {"smiles": "CC/C(=N\\NC(=O)Nc1nonc1N)c1ccc(OC)c(OC)c1", "hERG current change (%, negative = inhibition) at 1uM": 13.8},
      {"smiles": "Cc1c(C(=O)N/N=C/C(C)C)[nH]c2ccc([N+](=O)[O-])cc12", "hERG current change (%, negative = inhibition) at 1uM": 0.619},
      {"smiles": "CCN(Cc1ccccc1)C(=O)c1cc2cc(OC)c(OC)cc2[nH]1", "hERG current change (%, negative = inhibition) at 1uM": 13.3},
      {"smiles": "O=C(O)CSc1c2c(nc3cc(C(=O)N4CCCC4)ccc13)CCCC2", "hERG current change (%, negative = inhibition) at 1uM": 2.12},
      {"smiles": "Cc1ccc(S(=O)(=O)N2[C@@H](c3ccccc3F)C(C(=O)O)=CC[C@H]2c2cccc(C)c2)cc1", "hERG current change (%, negative = inhibition) at 1uM": 9.22},
      {"smiles": "CCN(CC)S(=O)(=O)c1cc(NC(=O)COC(=O)c2sc3ccccc3c2Cl)ccc1C", "hERG current change (%, negative = inhibition) at 1uM": 9.06},
      {"smiles": "Cc1ccc(C(=O)CN(CCCC(N)=O)S(=O)(=O)c2ccc([N+](=O)[O-])cc2)cc1", "hERG current change (%, negative = inhibition) at 1uM": -34},
      {"smiles": "COC(=O)c1ccccc1NC(=O)Cn1c(=O)n(Cc2ccccc2)c(=O)c2c(C)c(C)sc21", "hERG current change (%, negative = inhibition) at 1uM": 6.63},
      {"smiles": "CC12CC3CC(C)(C1)CC(C(O)CN1CCOCC1)(C3)C2.Cl", "note": "(stereo not shown)", "hERG current change (%, negative = inhibition) at 1uM": 14.9},
      {"smiles": "CN(C)CCn1c(C(=O)O)cc2ccccc21.Cl", "hERG current change (%, negative = inhibition) at 1uM": 11.7},
      {"smiles": "CN1/C(=C/C(=S)NC(=O)C2CCC2)C(C)(C)c2ccccc21", "hERG current change (%, negative = inhibition) at 1uM": 9.57},
      {"smiles": "Cc1ccc(Nc2nc(C(=O)NCCCN3CCOCC3)cs2)cc1", "hERG current change (%, negative = inhibition) at 1uM": -11.9},
      {"smiles": "O=C(NC1CCCc2c1cnn2-c1ccc(F)cc1F)c1csnn1", "note": "(stereo not shown)", "hERG current change (%, negative = inhibition) at 1uM": 12.5},
      {"smiles": "CC(NC(=O)/C=C/c1ccc(Br)cc1)c1ccc(Cl)cc1", "note": "(stereo not shown)", "hERG current change (%, negative = inhibition) at 1uM": 5.45},
      {"smiles": "CCCCn1nnnc1SCC(=O)c1cc(Cl)ccc1OC", "hERG current change (%, negative = inhibition) at 1uM": -1.89},
      {"smiles": "Cc1ccc(S(=O)(=O)CC(O)COc2ccc(F)cc2Cl)c(C)c1", "note": "(stereo not shown)", "hERG current change (%, negative = inhibition) at 1uM": 7.06},
      {"smiles": "CCCCSc1nc2sc3c(c2c(=O)[nH]1)CC(C)(CC)OC3", "note": "(stereo not shown)", "hERG current change (%, negative = inhibition) at 1uM": 19.7},
      {"smiles": "CCCCNc1ccc(S(N)(=O)=O)cc1[N+](=O)[O-]", "hERG current change (%, negative = inhibition) at 1uM": 9.61},
      {"smiles": "Cc1cccc(OCC(=O)O/N=C(\\N)c2ccccn2)c1C", "hERG current change (%, negative = inhibition) at 1uM": 3.96},
      {"smiles": "Cc1ccc(SCC(=O)Nc2ccc3c(c2)C(=O)NC3=O)cc1", "hERG current change (%, negative = inhibition) at 1uM": 11.8},
      {"smiles": "CC/C(=N\\Nc1ccc([N+](=O)[O-])cc1[N+](=O)[O-])c1ccc(O)cc1", "hERG current change (%, negative = inhibition) at 1uM": 20.6},
      {"smiles": "Cn1cc(C(=O)c2ccc(Cl)cc2Cl)cc1C(=O)N/N=C(\\N)COc1ccc(F)cc1", "hERG current change (%, negative = inhibition) at 1uM": 9.81},
      {"smiles": "COc1ccc(-c2nc(-c3ccc4c(c3)OCO4)[nH]c2-c2ccc(OC)cc2)cc1", "hERG current change (%, negative = inhibition) at 1uM": 14.7},
      {"smiles": "CCCN1C(=O)c2cc(C(=O)Nc3cccc(C(C)=O)c3)ccc2C1Nc1cccc(C(C)=O)c1", "note": "(stereo not shown)", "hERG current change (%, negative = inhibition) at 1uM": 7.41},
      {"smiles": "c1ccc(CCNc2ncnc3sccc23)nc1", "hERG current change (%, negative = inhibition) at 1uM": 21.7},
      {"smiles": "O=C(O)c1ccc(/C=C/c2nc3ccccc3c(=O)[nH]2)cc1", "hERG current change (%, negative = inhibition) at 1uM": 15.1},
      {"smiles": "COc1ccc(NC(=S)NC(NC(=O)c2ccccc2Cl)C(Cl)(Cl)Cl)c([N+](=O)[O-])c1", "note": "(stereo not shown)", "hERG current change (%, negative = inhibition) at 1uM": 12.5},
      {"smiles": "CC(=O)c1c(C)[nH]c(C(=O)Nc2nc(-c3ccc(Cl)cc3)cs2)c1C", "hERG current change (%, negative = inhibition) at 1uM": 17.1},
      {"smiles": "Cc1ccccc1-c1cc(C(=O)NCC2CC2)nn1CC1CC(c2cccc([N+](=O)[O-])c2)=NO1", "note": "(stereo not shown)", "hERG current change (%, negative = inhibition) at 1uM": 11.8},
      {"smiles": "Nn1cnnc1N/N=C/c1cc([N+](=O)[O-])c(Cl)cc1Cl", "hERG current change (%, negative = inhibition) at 1uM": -3.12},
      {"smiles": "Cc1cccnc1NC(=O)c1ccc(C(=O)c2ccccc2)cc1", "hERG current change (%, negative = inhibition) at 1uM": 6.21},
      {"smiles": "CCOc1cc(CNc2ccccc2)cc(Br)c1OCC(=O)NC(C)(C)C", "hERG current change (%, negative = inhibition) at 1uM": 14},
      {"smiles": "O=C(CN1CCCCCC1)N/N=C/c1ccc2ccccc2c1", "hERG current change (%, negative = inhibition) at 1uM": -10.5},
      {"smiles": "CCCCc1ccc(NC(=S)N2CCCC2)cc1", "hERG current change (%, negative = inhibition) at 1uM": 11.3},
      {"smiles": "O=C(NCc1ccco1)/C(=C/c1cccc([N+](=O)[O-])c1)NC(=O)c1ccco1", "hERG current change (%, negative = inhibition) at 1uM": -15.4},
      {"smiles": "COc1ccc(C(C)=O)c(Oc2cc(NN3CCCCC3)c([N+](=O)[O-])cc2[N+](=O)[O-])c1", "hERG current change (%, negative = inhibition) at 1uM": 12.7},
      {"smiles": "COc1ccc(S(=O)(=O)N2CCCOC2CNC(=O)C(=O)NCc2ccco2)cc1C", "note": "(stereo not shown)", "hERG current change (%, negative = inhibition) at 1uM": 3.62}
    ]}
  ]
}
